# Test results taken from the supplement of paper PMC8728848.
# Some of the results follow.
# What was measured:
# Experiment in all cases: glycan array binding signal (z-score within array); higher = stronger binding
# Conditions in all cases: glycan notation: IUPAC condensed, linker removed
# [1] = target: Gal(b1-4)GlcNAc(b1-2)Man(a1-3)[Gal(b1-4)GlcNAc(b1-2)Man(a1-6)]Man(b1-4)GlcNAc(b1-4)GlcNAc
# Outline: (§1)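 Columns mapping to the same glycan were averaged after glycan names were converted to IUPAC-condensed notation. The data come from 3228 arrays in the Consortium for Functional Glycomics database, limited to those with an available protein sequence. Binding is reported as a within-array Z-score averaged across arrays of one protein sequence and across linkers.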
# [2] = target: Gal(b1-4)GlcNAc(b1-2)Man(a1-3)[Gal(b1-4)GlcNAc(b1-2)Man(a1-6)]Man(b1-4)GlcNAc(b1-4)[Fuc(a1-6)]GlcNAc
# Outline: as §1
# [3] = target: Gal(b1-4)GlcNAc(b1-2)Man(a1-3)[Gal(b1-4)GlcNAc(b1-2)Man(a1-6)][Gal(b1-4)GlcNAc(b1-4)]Man(b1-4)GlcNAc(b1-4)[Fuc(a1-6)]GlcNAc
# Outline: as §1
# [4] = target: Gal(b1-4)GlcNAc(b1-2)Man(a1-3)[Gal(b1-4)GlcNAc(b1-2)Man(a1-6)][GlcNAc(b1-4)]Man(b1-4)GlcNAc(b1-4)[Fuc(a1-6)]GlcNAc
# Outline: as §1
# [5] = target: Gal(b1-4)GlcNAc(b1-2)Man(a1-3)[GlcNAc(b1-2)Man(a1-6)]Man(b1-4)GlcNAc(b1-4)GlcNAc
# Outline: as §1
# [6] = target: Gal(b1-4)GlcNAc(b1-2)Man(a1-3)[GlcNAc(b1-4)][Gal(b1-4)GlcNAc(b1-2)Man(a1-6)]Man(b1-4)GlcNAc(b1-4)GlcNAc
# Outline: as §1
# [7] = target: Gal(b1-4)GlcNAc(b1-2)Man(a1-3)[Man(a1-6)]Man(b1-4)GlcNAc(b1-4)GlcNAc
# Outline: as §1
# [8] = target: Gal(b1-4)GlcNAc(b1-2)Man(a1-6)Man(b1-4)GlcNAc(b1-4)GlcNAc
# Outline: as §1
# [9] = target: Gal(b1-4)GlcNAc(b1-2)Man(a1-6)[GlcNAc(b1-2)Man(a1-3)]Man(b1-4)GlcNAc(b1-4)GlcNAc
# Outline: as §1
# [10] = target: Gal(b1-4)GlcNAc(b1-2)Man(a1-6)[Man(a1-3)]Man(b1-4)GlcNAc(b1-4)GlcNAc
# Outline: as §1
# [11] = target: Gal(b1-4)GlcNAc(b1-2)[Gal(b1-4)GlcNAc(b1-4)]Man(a1-3)[Gal(b1-4)GlcNAc(b1-2)Man(a1-6)]Man(b1-4)GlcNAc(b1-4)GlcNAc
# Outline: as §1
# [12] = target: Gal(b1-4)GlcNAc(b1-2)[Gal(b1-4)GlcNAc(b1-4)]Man(a1-3)[Gal(b1-4)GlcNAc(b1-2)[Gal(b1-4)GlcNAc(b1-6)]Man(a1-6)]Man(b1-4)GlcNAc(b1-4)GlcNAc
# Outline: as §1
# [13] = target: Gal(b1-4)GlcNAc(b1-2)[Gal(b1-4)GlcNAc(b1-4)]Man(a1-3)[GlcNAc(b1-4)][Gal(b1-4)GlcNAc(b1-2)Man(a1-6)]Man(b1-4)GlcNAc(b1-4)GlcNAc
# Outline: as §1
# [14] = target: Gal(b1-4)GlcNAc(b1-2)[Gal(b1-4)GlcNAc(b1-4)]Man(a1-3)[GlcNAc(b1-4)][Gal(b1-4)GlcNAc(b1-2)[Gal(b1-4)GlcNAc(b1-6)]Man(a1-6)]Man(b1-4)GlcNAc(b1-4)GlcNAc
# Outline: as §1
# [15] = target: Gal(b1-4)GlcNAc(b1-2)[Gal(b1-4)GlcNAc(b1-6)]Man(a1-6)[Gal(b1-4)GlcNAc(b1-2)Man(a1-3)]Man(b1-4)GlcNAc(b1-4)GlcNAc
# Outline: as §1
# [16] = target: Gal(b1-4)GlcNAc(b1-2)[Gal(b1-4)GlcNAc(b1-6)]Man(a1-6)[Gal(b1-4)GlcNAc(b1-2)Man(a1-3)]Man(b1-4)GlcNAc(b1-4)[Fuc(a1-6)]GlcNAc
# Outline: as §1
# [17] = target: Gal(b1-4)GlcNAc(b1-2)[Gal(b1-4)GlcNAc(b1-6)]Man(a1-6)[GlcNAc(b1-4)][Gal(b1-4)GlcNAc(b1-2)Man(a1-3)]Man(b1-4)GlcNAc(b1-4)GlcNAc
# Outline: as §1
# [18] = target: Gal(b1-4)GlcNAc(b1-2)[Gal(b1-4)GlcNAc(b1-6)]Man(a1-6)[GlcNAc(b1-4)][Gal(b1-4)GlcNAc(b1-2)[Gal(b1-4)GlcNAc(b1-4)]Man(a1-3)]Man(b1-4)GlcNAc(b1-4)[Fuc(a1-6)]GlcNAc
# Outline: as §1
# [19] = target: Gal(b1-4)GlcNAc(b1-3)Gal(b1-3)GalNAc
# Outline: as §1
binder,measurement,setting,value
Als3-N (Candida albicans) (protein) KTITGVFNSFNSLTWSNAATYNYKGPGTPTWNAVLGWSLDGTSASPGDTFTLNMPCVFKFTTSQTSVDLTAHGVKYATCQFQAGEEFMTFSTLTCTVSNTLTPSIKALGTVTLPLAFNVGGTGSSVDLEDSKCFTAGTNTVTFNDGGKKISINVDFERSNVDPKGYLTDSRVIPSLNKVSTLFVAPQCANGYTSGTMGFANTYGDVQIDCSNIHVGITKGLNDWNYPVSSESFSYTKTCSSNGIFITYKNVPAGYRPFVDAYISATDVNSYTLSYANEYTCAGGYWQRAPFTLRWTGYRNSDAGSNGIVIVATTRTVTDSTTAVTTLPFDPNRDKTKTIEILKPIPTTTITTSYVGVTTSYLTKTAPIGETATVIVDIPYHTTTTVTSKWTGTITSTTTHTNPTDSIDTVIVQVP,glycan array binding signal (z-score),[1],0.046
same,glycan array binding signal (z-score),[2],-0.291
same,glycan array binding signal (z-score),[3],-0.252
same,glycan array binding signal (z-score),[4],-0.246
same,glycan array binding signal (z-score),[5],0.335
same,glycan array binding signal (z-score),[6],-0.323
same,glycan array binding signal (z-score),[7],-0.206
same,glycan array binding signal (z-score),[8],-0.205
same,glycan array binding signal (z-score),[9],-0.27
same,glycan array binding signal (z-score),[10],0.02
same,glycan array binding signal (z-score),[11],-0.236
same,glycan array binding signal (z-score),[12],-0.36
same,glycan array binding signal (z-score),[13],-0.288
same,glycan array binding signal (z-score),[14],-0.249
same,glycan array binding signal (z-score),[15],0.505
same,glycan array binding signal (z-score),[16],0.418
same,glycan array binding signal (z-score),[17],-0.255
same,glycan array binding signal (z-score),[18],-0.109
same,glycan array binding signal (z-score),[19],-0.308
